The supplement of paper PMC8728848
This is one part of the list.

How the values were obtained:
Assay in all cases: glycan array binding signal (z-score within array); higher = stronger binding
Conditions in all cases: glycan notation: IUPAC condensed, linker removed
[1] = biological target: Gal(b1-4)GalNAc(b1-3)[Fuc(a1-2)]Gal(b1-4)GlcNAc
In short: (§1)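 The binding signal is a Z-score computed within each array and averaged over linkers. Arrays of the same protein sequence at different concentrations or buffers were also averaged together. Data originate from 3228 arrays in the Consortium for Functional Glycomics database, kept only where the protein sequence was available.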

[2] = biological target: Gal(b1-4)Glc
In short: as §1

[3] = biological target: Gal(b1-4)Glc6S
In short: as §1

[4] = biological target: Gal(b1-4)GlcNAc
In short: as §1

[5] = biological target: Gal(b1-4)GlcNAc(a1-6)Gal(b1-4)GlcNAc
In short: as §1

[6] = biological target: Gal(b1-4)GlcNAc(b1-2)Man
In short: as §1

[7] = biological target: Gal(b1-4)GlcNAc(b1-2)Man(a1-3)Man(b1-4)GlcNAc(b1-4)GlcNAc
In short: as §1

[8] = biological target: Gal(b1-4)GlcNAc(b1-2)Man(a1-3)[Gal(b1-4)GlcNAc(b1-2)Man(a1-6)]Man(b1-4)GlcNAc(b1-4)GlcNAc
In short: as §1

[9] = biological target: Gal(b1-4)GlcNAc(b1-2)Man(a1-3)[Gal(b1-4)GlcNAc(b1-2)Man(a1-6)]Man(b1-4)GlcNAc(b1-4)[Fuc(a1-6)]GlcNAc
In short: as §1

[10] = biological target: Gal(b1-4)GlcNAc(b1-2)Man(a1-3)[Gal(b1-4)GlcNAc(b1-2)Man(a1-6)][Gal(b1-4)GlcNAc(b1-4)]Man(b1-4)GlcNAc(b1-4)[Fuc(a1-6)]GlcNAc
In short: as §1

[11] = biological target: Gal(b1-4)GlcNAc(b1-2)Man(a1-3)[Gal(b1-4)GlcNAc(b1-2)Man(a1-6)][GlcNAc(b1-4)]Man(b1-4)GlcNAc(b1-4)[Fuc(a1-6)]GlcNAc
In short: as §1

[12] = biological target: Gal(b1-4)GlcNAc(b1-2)Man(a1-3)[GlcNAc(b1-2)Man(a1-6)]Man(b1-4)GlcNAc(b1-4)GlcNAc
In short: as §1

[13] = biological target: Gal(b1-4)GlcNAc(b1-2)Man(a1-3)[GlcNAc(b1-4)][Gal(b1-4)GlcNAc(b1-2)Man(a1-6)]Man(b1-4)GlcNAc(b1-4)GlcNAc
In short: as §1

[14] = biological target: Gal(b1-4)GlcNAc(b1-2)Man(a1-3)[Man(a1-6)]Man(b1-4)GlcNAc(b1-4)GlcNAc
In short: as §1

[15] = biological target: Gal(b1-4)GlcNAc(b1-2)Man(a1-6)Man(b1-4)GlcNAc(b1-4)GlcNAc
In short: as §1

[16] = biological target: Gal(b1-4)GlcNAc(b1-2)Man(a1-6)[GlcNAc(b1-2)Man(a1-3)]Man(b1-4)GlcNAc(b1-4)GlcNAc
In short: as §1

[17] = biological target: Gal(b1-4)GlcNAc(b1-2)Man(a1-6)[Man(a1-3)]Man(b1-4)GlcNAc(b1-4)GlcNAc
In short: as §1

[18] = biological target: Gal(b1-4)GlcNAc(b1-2)[Gal(b1-4)GlcNAc(b1-4)]Man(a1-3)[Gal(b1-4)GlcNAc(b1-2)Man(a1-6)]Man(b1-4)GlcNAc(b1-4)GlcNAc
In short: as §1

[19] = biological target: Gal(b1-4)GlcNAc(b1-2)[Gal(b1-4)GlcNAc(b1-4)]Man(a1-3)[Gal(b1-4)GlcNAc(b1-2)[Gal(b1-4)GlcNAc(b1-6)]Man(a1-6)]Man(b1-4)GlcNAc(b1-4)GlcNAc
In short: as §1

[20] = biological target: Gal(b1-4)GlcNAc(b1-2)[Gal(b1-4)GlcNAc(b1-4)]Man(a1-3)[GlcNAc(b1-4)][Gal(b1-4)GlcNAc(b1-2)Man(a1-6)]Man(b1-4)GlcNAc(b1-4)GlcNAc
In short: as §1

[21] = biological target: Gal(b1-4)GlcNAc(b1-2)[Gal(b1-4)GlcNAc(b1-4)]Man(a1-3)[GlcNAc(b1-4)][Gal(b1-4)GlcNAc(b1-2)[Gal(b1-4)GlcNAc(b1-6)]Man(a1-6)]Man(b1-4)GlcNAc(b1-4)GlcNAc
In short: as §1

[22] = biological target: Gal(b1-4)GlcNAc(b1-2)[Gal(b1-4)GlcNAc(b1-6)]Man(a1-6)[Gal(b1-4)GlcNAc(b1-2)Man(a1-3)]Man(b1-4)GlcNAc(b1-4)GlcNAc
In short: as §1

B1: CGL (Crenomytilus grayanus), H2FH31 (protein)
chain: MTTFLIKHKASGKFLHPYGGSSNPANNTKLVLHSDIHERMYFQFDVVDERWGYIKHVASGKIVHPYGGQANPPNETNMVLHQDRHDRALFAMDFFNDNIMHKGGKYIHPKGGSPNPPNNTETVIHGDKHAAMEFIFVSPKNKDKRVLVYA
- glycan array binding signal (z-score) [1]: 1.29
- glycan array binding signal (z-score) [2]: -0.333
- glycan array binding signal (z-score) [3]: -0.31
- glycan array binding signal (z-score) [4]: 0.054
- glycan array binding signal (z-score) [5]: -0.368
- glycan array binding signal (z-score) [6]: -0.334
- glycan array binding signal (z-score) [7]: -0.054
- glycan array binding signal (z-score) [8]: 1.11
- glycan array binding signal (z-score) [9]: 0.012
- glycan array binding signal (z-score) [10]: 1.2
- glycan array binding signal (z-score) [11]: 0.362
- glycan array binding signal (z-score) [12]: -0.122
- glycan array binding signal (z-score) [13]: -0.305
- glycan array binding signal (z-score) [14]: -0.101
- glycan array binding signal (z-score) [15]: -0.23
- glycan array binding signal (z-score) [16]: -0.305
- glycan array binding signal (z-score) [17]: -0.38
- glycan array binding signal (z-score) [18]: 1.43
- glycan array binding signal (z-score) [19]: 1.1
- glycan array binding signal (z-score) [20]: 0.217
- glycan array binding signal (z-score) [21]: 0.775
- glycan array binding signal (z-score) [22]: 1.13
